Data from patent publication US20240002435A1, “SYNTHETIC PEPTIDE AND APPLICATION THEREOF” (Wuhan Innerse Pharmaceutical Inc., priority 2021, published 2024).

Assay: Dose-effect experiment, body weight of MCAO model animals (Example 10)
Method: The establishment of rat model: the rats were placed in an anesthesia induction box filled with 3.0% isoflurane for anesthesia induction. Anesthesia-induced animals were transferred to the operating table, and anesthesia was maintained with 2.0%˜2.5% isoflurane at 200 mL/min using a small-animal gas anesthesia machine, and the eyelid reflex and pain response of the rats were observed. The surgery can be started only after the eyelid reflex response and the pain response on limbs and tail disappeared. • A. Isolating and exposing blood vessels: the skin of the surgical area was shaved, and the rat was placed under a surgical microscope. The skin of the rat was cut along the midline with ophthalmic scissors, with a cut of about 2 cm length. […]
Animals measured: all the surviving experimental animals planned to be measured;
Measurement time: the body weight was measured at least twice during the accommodation, and each batch of rats were weighed once on the day before the surgery and on the day of dissection to calculate the amount of drug administered and the anesthetic applied; the body weight was measured twice a week after the surgery. […]

## YGRKKRRQRRRKLSSIESDV [S1, Nerinetide]
3 mg/kg i.v., D 0 body weight − D 2 body weight, mean ± SD
  Weight Loss: 48.22 ± 8.23 g
MCAO rats, 1 day after surgery, vs model control group
  Influence on rat's body weight: no significant influence on rat's body weight

Where no end group is shown, it is not given here.
